# Experimental data: the supplement of paper PMC4604168 (melanoma cell lines)
# This is one part of the list. Repeats are few or missing, and single values can be far off.
# Tests used:
# Experiment in all cases: cell count relative to DMSO control; melanoma cells; higher = more viable cells
# Settings in all cases: library dose: standard library concentration; 72 h
# [1] = system: G361
# [2] = system: IPC-298
# [3] = system: IST-MEL1
# [4] = system: LB2518-MEL
# [5] = system: LOXIMVI
# [6] = system: MEL-HO
# [7] = system: MZ2-MEL
# [8] = system: MeWo
# [9] = system: RPMI7951
# [10] = system: RVH-421
# 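Further: cells treated in 1,536-well plates, then fixed and DAPI-stained, with nuclei counted from automated high-throughput microscope images.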
SMILES,cell count [1] [%],cell count [2] [%],cell count [3] [%],cell count [4] [%],cell count [5] [%],cell count [6] [%],cell count [7] [%],cell count [8] [%],cell count [9] [%],cell count [10] [%]
"NC1(c2ccc(-c3nc4ccn5c(=O)[nH]nc5c4cc3-c3ccccc3)cc2)CCC1 + O=C(O)c1ccc(-c2c[nH]c3ncc(-c4ccccc4)cc23)cc1C1CCCC1 [GSK650394] (first compound 2 µM, partner dose 0.8 µM)",53.8,97.9,78.7,93.5,82.7,73.5,104,86.6,91.9,76.6
"NC1(c2ccc(-c3nc4ccn5c(=O)[nH]nc5c4cc3-c3ccccc3)cc2)CCC1 + Cn1c(Nc2ccc(C(F)(F)F)cc2)nc2cc(Oc3ccnc(-c4ncc(C(F)(F)F)[nH]4)c3)ccc21 [CHIR265] (first compound 2 µM, partner dose 0.4 µM)",6.9,49.9,72.5,34.4,70.7,44.7,58.8,57.4,35.6,55.2
"NC1(c2ccc(-c3nc4ccn5c(=O)[nH]nc5c4cc3-c3ccccc3)cc2)CCC1 + COc1ccc2c(c1)CCC1C2CCC2(C)C(NCCCCCCN3C(=O)C=CC3=O)CCC12 [U73122] (first compound 2 µM, partner dose 2 µM)",96.3,70.4,93,77.7,80.3,67.8,90.2,54.8,46.1,101
"CCCS(=O)(=O)Nc1ccc(F)c(C(=O)c2c[nH]c3ncc(Cl)cc23)c1F + Nc1nc(F)nc2c1ncn2[C@@H]1O[C@H](CO)[C@@H](O)[C@@H]1O [fludarabine] (first compound 0.4 µM, partner dose 1 µM)",79.4,61.4,76.6,118,147,79.7,87.6,104,47.8,97.5
"CCCS(=O)(=O)Nc1ccc(F)c(C(=O)c2c[nH]c3ncc(Cl)cc23)c1F + C=CCn1c(=O)c2cnc(Nc3ccc(N4CCN(C)CC4)cc3)nc2n1-c1cccc(C(C)(C)O)n1 [MK1775] (first compound 0.4 µM, partner dose 0.1 µM)",48.5,51,73.8,65.4,92.7,73.9,80.5,68.5,56.4,73.1
"C=C(c1ccc(C(=O)O)cc1)c1cc2c(cc1C)C(C)(C)CCC2(C)C [Bexarotene] + OCc1c[nH]c2ccccc12 [Indole-3-carbinol] (first compound 10 µM, partner dose 4 µM)",72.3,82.7,87.9,119,111,87.1,64.4,98.5,79.6,103
"CN(c1ncccc1CNc1nc(Nc2ccc3c(c2)CC(=O)N3)ncc1C(F)(F)F)S(C)(=O)=O + COc1cc(Nc2ncc(F)c(Nc3ccc4c(n3)NC(=O)C(C)(C)O4)n2)cc(OC)c1OC [Tamatinib] (first compound 0.4 µM, partner dose 2 µM)",58.2,87.7,53.6,69,12.7,75.5,41.9,72.1,16.6,58.4
"C=C(c1ccc(C(=O)O)cc1)c1cc2c(cc1C)C(C)(C)CCC2(C)C [Bexarotene] + Cc1ccc(NC(=O)c2cccc(N(C)C)c2)cc1NC(=O)c1ccc(O)cc1 [ZM336372] (first compound 10 µM, partner dose 10 µM)",80.8,91.5,77.7,101,81.7,84.1,80.7,77.8,72,84.2
"CCCS(=O)(=O)Nc1ccc(F)c(C(=O)c2c[nH]c3ncc(Cl)cc23)c1F + O=S(=O)(c1ccccc1)N(CC(F)(F)F)c1ccc(C(O)(C(F)(F)F)C(F)(F)F)cc1 [T0901317] (first compound 0.4 µM, partner dose 7 µM)",59.6,60.8,91.1,86.5,97.3,81.2,67.4,92.2,109,80.5
"CN(c1ncccc1CNc1nc(Nc2ccc3c(c2)CC(=O)N3)ncc1C(F)(F)F)S(C)(=O)=O + CC(C)CCN1c2nc(Nc3cc(F)c(O)c(F)c3)ncc2N(C)C(=O)C1C [BID1870] (first compound 0.4 µM, partner dose 1 µM)",57.7,66.7,77,85.2,97.1,67.5,74.8,73.7,75.4,68.3
"CN(c1ncccc1CNc1nc(Nc2ccc3c(c2)CC(=O)N3)ncc1C(F)(F)F)S(C)(=O)=O + Cc1cc(Nc2cc(N3CCN(C)CC3)nc(/C=C/c3ccccc3)n2)n[nH]1 [ENMD2076] (first compound 0.4 µM, partner dose 0.2 µM)",75.2,82.5,93.9,86.3,87.6,105,96.4,92.8,57.3,97.4
"CS(=O)(=O)c1ccc(C(=O)Nc2ccc(Cl)c(-c3ccccn3)c2)c(Cl)c1 [vismodegib] + OCCn1cc(-c2cnc3nnn(Cc4ccc5ncccc5c4)c3n2)cn1 [PF04217903] (first compound 5 µM, partner dose 5 µM)",108,99.3,102,108,73.5,105,117,98.5,117,98.7
"CS(=O)(=O)c1ccc(C(=O)Nc2ccc(Cl)c(-c3ccccn3)c2)c(Cl)c1 [vismodegib] + Cn1cc(/C=C2\C(=O)Nc3cccnc32)c2ccccc21 [GW441756] (first compound 5 µM, partner dose 2 µM)",89.7,93.5,95.7,128,104,82.4,90,86,80,119
"CCCS(=O)(=O)Nc1ccc(F)c(C(=O)c2c[nH]c3ncc(Cl)cc23)c1F + Cc1cc([N+](=O)[O-])ccc1NS(=O)(=O)c1cc(Cl)ccc1Cl [FH535] (first compound 0.4 µM, partner dose 5 µM)",49.1,43.5,57,94,91.3,52.5,71.8,81.2,119,68.1
"CN(c1ncccc1CNc1nc(Nc2ccc3c(c2)CC(=O)N3)ncc1C(F)(F)F)S(C)(=O)=O + O=S(=O)(c1ccccc1)N(CC(F)(F)F)c1ccc(C(O)(C(F)(F)F)C(F)(F)F)cc1 [T0901317] (first compound 0.4 µM, partner dose 7 µM)",57.2,69.4,69.2,65.4,90.8,67.6,72.9,77.3,59.4,76.4
"CCCS(=O)(=O)Nc1ccc(F)c(C(=O)c2c[nH]c3ncc(Cl)cc23)c1F + O=C(O)C(=O)Nc1sc2c(c1C(=O)O)CCNC2 [TCS401] (first compound 0.4 µM, partner dose 8.33333 µM)",69.6,75.6,84.3,101,84.9,65.6,92.1,89,95.1,90.4
"C=C(c1ccc(C(=O)O)cc1)c1cc2c(cc1C)C(C)(C)CCC2(C)C [Bexarotene] + COc1cc(Nc2ncc(F)c(Nc3ccc4c(n3)NC(=O)C(C)(C)O4)n2)cc(OC)c1OC [Tamatinib] (first compound 10 µM, partner dose 2 µM)",73.5,91.1,66.6,97.3,31.2,81.7,80.1,69.6,48.1,106
"C=C(c1ccc(C(=O)O)cc1)c1cc2c(cc1C)C(C)(C)CCC2(C)C [Bexarotene] + CCN(CC)CCCCNc1ncc2cc(-c3cc(OC)cc(OC)c3)c(NC(=O)NC(C)(C)C)nc2n1 [PD173074] (first compound 10 µM, partner dose 0.5 µM)",69.7,82.2,98.7,114,88.4,88,73,94.1,73.1,96.8
"C=C(c1ccc(C(=O)O)cc1)c1cc2c(cc1C)C(C)(C)CCC2(C)C [Bexarotene] + O=C(Nc1cccc(Cl)c1)Nc1ncc(CCNc2ncnc3ccsc23)s1 [SNS314] (first compound 10 µM, partner dose 0.004 µM)",80.2,77.3,54.8,94.3,74.1,80.6,83.4,70.3,52.2,76.4
"C=C(c1ccc(C(=O)O)cc1)c1cc2c(cc1C)C(C)(C)CCC2(C)C [Bexarotene] + COc1ccc(Cl)c(Nc2nc3ccccc3nc2NS(=O)(=O)c2cccc(NC(=O)C(C)(C)N)c2)c1 [XL147] (first compound 10 µM, partner dose 4 µM)",91.1,88,70.2,99.7,84.5,73.7,91.2,77.7,141,144
"CN(c1ncccc1CNc1nc(Nc2ccc3c(c2)CC(=O)N3)ncc1C(F)(F)F)S(C)(=O)=O + Cn1c(=O)n(-c2ccc(C(C)(C)C#N)cc2)c2c3cc(-c4cnc5ccccc5c4)ccc3ncc21 [NVP-BEZ235] (first compound 0.4 µM, partner dose 0.02 µM)",52.5,75.7,81.2,72.7,58.6,68.8,65.1,54.5,34.7,67.2
"CS(=O)(=O)c1ccc(C(=O)Nc2ccc(Cl)c(-c3ccccn3)c2)c(Cl)c1 [vismodegib] + Nc1ccn([C@@H]2O[C@H](CO)[C@@H](O)C2(F)F)c(=O)n1 [gemcitabine] (first compound 5 µM, partner dose 0.002 µM)",55.6,48.1,50,79.6,87.7,69.4,95.7,61.2,94.2,71.9
